Reference: PubChem BioAssay AID1508642 (National Center for Advancing Translational Sciences (NCATS), 2021)
About 200 (0.47%) of roughly 43,000 compounds were called active. Another 12% or so got no clear call; they are omitted. Calls come from the whole dose curve; as a rule, active = well fitted cell-killing curve with a large enough effect; inconclusive = small, poorly fitted or top-dose-only effect, or effect the other way; inactive = flat fitted curve, though single readings scatter. The list shows a part of the results.

Test: Cell viability qHTS assay in S16 Pmp22-F2sN cells; note: nearly all actives have a fitted effect of over 65% in size
Conditions: S16 Pmp22-F2sN Schwann cells (luciferase reporters placed in the Pmp22 gene) viability, CellTiter-Glo, 24 h; series mostly up to 57.5 µM; activity change, negative = cytotoxicity: at the top concentration
Method in brief: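 Luminescence from CellTiter-Glo, read by CCD camera after a 15 min room-temperature incubation, served as the viability signal. Reporter Schwann cells (S16 Pmp22-F2sN) had been treated with pin-transferred compounds for 24 h at 37C.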
% is set by controls: 0 for no effect and ±100 for the full control effect.

Structure (SMILES)	activity change, negative = cytotoxicity
O=C(Nc1cc(C(F)(F)F)ccc1Cl)c1cc(-c2cccs2)nc2ccccc12	inactive: 8.59%
Cc1cc(C)c(S(=O)(=O)NCCc2sc(-c3cccnc3)nc2C)c(C)c1	inactive: 3.91%
Cc1ccsc1CN(Cc1ccco1)C(=O)c1ccc(Cl)cc1	inactive: -9.04%
CCOC(=O)c1cc(-c2ccc(OC)cc2)n(CCC(=O)NCc2ccccc2OC)c1C	inactive: -4.93%
Cc1ccc(C)c(N2CCN(S(=O)(=O)c3ccc(-c4cc(C(F)(F)F)on4)s3)CC2)c1	inactive: -8.37%
Cc1c(C(=O)Nc2ccc(F)cc2F)oc2ccc3c(c12)C(=O)CC(C)(C)O3	inactive: 0.207%
COc1ccc(CCNC(=O)c2cnc3ccc(C)cn3c2=O)cc1OC	inactive: -0.78%
Cn1ncc2c(NCc3ccc(Cl)cc3)ncnc21	inactive: -3.54%
COCCCNC(=O)c1cc(-c2ccc(OC)cc2)nc2n[nH]c(-c3ccc(Cl)cc3)c12	inactive: -0.353%
COc1cccc(CNC(=O)c2sc3nc4n(c(=O)c3c2C)CCC4)c1	inactive: -6.95%
Cc1ccc(CNC(=O)c2c(O)nc3ccccn3c2=O)cc1	inactive: 1.33%
Cc1ccc(Cn2c(=O)n(CC3CCC(C(=O)N4CCC(C)CC4)CC3)c(=O)c3sccc32)cc1 (stereo not given)	inactive: 0.75%
Cc1ccc(N(Cc2cccs2)C(=O)Nc2cccc(Cl)c2)cc1	inactive: 5.99%
Cc1c(Cl)cccc1NC(=O)NCc1c(-n2cccc2)sc2c1CCCC2	inactive: -1.67%
Cc1oc2c(c1C(=O)Nc1ccccc1Br)C1=NCCN1C=N2	inactive: 21.4%
CCOc1ccccc1NC(=O)Cn1cnc2c1c(=O)n(C)c(=O)n2C	inactive: 14.3%
COc1ccc(N2CC3=C(C2=O)C(c2ccc(O)c(OC)c2)NC(=O)N3C)cc1 (stereo not given)	inactive: 9.15%
CCOC(=O)c1ccccc1NC(=O)c1cc2c(s1)-c1c(C)cccc1OC2	inactive: 2.93%
CC(C)C(=O)Nc1nnc(S(=O)(=O)N2CCCCCC2)s1	inactive: 1.88%
O=C(C1COc2ccccc2O1)N1CCN(c2nc3c(F)cccc3s2)CC1 (stereo not given)	inactive: 1.14%
COc1ccc(N(CC(=O)NCc2ccccc2Cl)S(=O)(=O)c2c(C)[nH]c(=O)[nH]c2=O)cc1	inactive: 3.98%
COCCNC(=O)C1CCC(CNS(=O)(=O)c2ccc3c(c2)CC(C)N3C(C)=O)CC1 (stereo not given)	inactive: 4.88%
COc1ccc(NC(=O)CSc2nnc(-c3ccc(OC)cc3)s2)cc1	inactive: -11.7%
COc1cccc(C(c2sc3nc(-c4ccco4)nn3c2O)N2CCOCC2)c1 (stereo not given)	inactive: -5.37%

Structure (SMILES)	activity change, negative = cytotoxicity
Cc1ccc(Nc2nc3ccc(C)cc3nc2-n2nc(C)cc2C)c(C)c1	inactive: 8.07%
Cc1c(C(=O)Nc2cccc(F)c2)oc2c1-c1nn(Cc3c(F)cccc3Cl)cc1CC2	inactive: -3.49%
COc1cc(C(CC(=O)Nc2ccc(Br)cn2)N2Cc3ccccc3C2=O)cc(OC)c1OC (stereo not given)	inactive: 0.921%
Cc1nn(CC(=O)NCc2cccc(Br)c2)c(=O)c2c1sc1ccccc12	inactive: -0.0621%
Cc1cc(C)c(S(=O)(=O)NCCc2cc3cc(C)c(C)cc3[nH]c2=O)c(C)c1	inactive: 9.76%
O=S(=O)(NCCc1nnc2ccc(SCc3ccc(C(F)(F)F)cc3)nn12)c1ccccc1	inactive: -14.1%
CCOCCc1nn2c(=O)cc(COC(=O)c3ccccc3Br)nc2s1	inactive: 20.6%
O=C(NCCc1csc(-c2ccc(C(F)(F)F)cc2)n1)c1ccccc1Cl	inactive: -3.65%
N#C/C(=C\c1ccc(-c2ccc(Br)cc2)o1)C(=O)Nc1ccccc1O	inactive: 9.91%
Cc1ccc(-n2ncc3c(N4CCN(Cc5ccccc5)CC4)ncnc32)cc1C	inactive: -2.63%
Cc1oc(-c2ccccc2F)nc1Cn1c(SCc2cccc(Cl)c2)nc2ccncc21	inactive: -16.2%
CCCn1c(=N)c(C(=O)NCc2ccccc2)cc2c(=O)n3cccc(C)c3nc21	inactive: 5.9%
Cc1ccc(CNC(=O)C(=O)NCC(c2cccs2)S(=O)(=O)c2ccccc2)cc1 (stereo not given)	inactive: 1.55%
Cc1ccc(C)c(N2CCN(c3nc4ccccc4n4nnnc34)CC2)c1	inactive: 17.5%
O=C(COc1ccc(F)cc1)NCc1ccc2c(c1)CCN2C(=O)c1ccc(F)cc1	inactive: -15.7%
COc1ccc(CCNC(=O)c2c3c(nc4ccccc24)C(=O)N(C2CCCCC2)C3)cc1OC	inactive: 0.926%
O=C(Nc1ccc(F)c(Cl)c1)C1CCN(c2ncccn2)CC1	inactive: -22.9%
Oc1c(C(c2cccc(Cl)c2)N2CCOCC2)sc2nc(-c3ccco3)nn12 (stereo not given)	inactive: 4.76%
CCN1c2ccccc2-c2nc(SCC(=O)Nc3cc(C)c(Cl)cc3OC)ncc2S1(=O)=O	inactive: 2.86%
COC(=O)c1ccccc1NC(=O)C1CCCN(C(=O)c2cnn(-c3ccc(F)cc3)c2-n2cccc2)C1 (stereo not given)	inactive: -5.92%
COCCn1c(=O)[nH]c2cc(C(=O)N3CCN(c4ccc(F)cc4)CC3)ccc2c1=O	inactive: 4.94%
Cc1cc(Br)cc(C)c1OCC(=O)Nc1ccc(S(=O)(=O)Nc2ncccn2)cc1	inactive: -16.2%
Cc1cc(-n2c(C)nc3ccccc3c2=O)ccc1NC(=O)c1cccc([N+](=O)[O-])c1C	inactive: -5.9%
Cc1cccc(OCC(=O)Nc2ccc(S(=O)(=O)N(Cc3ccccc3)c3ccccc3)cc2)c1	inactive: 1.53%

Structure (SMILES)	activity change, negative = cytotoxicity
CCOc1cccc(C2Oc3nc(SC)nnc3-c3ccccc3N2C(C)=O)c1OC (stereo not given)	inactive: -20.4%
Cc1cc(C)cc(NC(=O)Cn2c(C)cc(C)c(C#N)c2=O)c1	inactive: -7.04%
O=C(CSc1nc2ccccc2n1Cc1cccc(C(F)(F)F)c1)NCc1ccccc1	inactive: 1.48%
O=C(O)c1ccc(CSc2nc3cccnc3n2Cc2cccc(F)c2)cc1	inactive: -0.923%
CC(=O)Nc1ccc(NC(=O)c2c(-c3ccccc3)noc2C)cc1	inactive: -7.56%
CC(=O)N1CCc2cc(CNS(=O)(=O)c3ccccc3C(F)(F)F)ccc21	inactive: 2.28%
Cc1nn(CC(=O)NCc2ccco2)c(=O)c2nn(-c3ccccc3)c(C)c12	inactive: -0.296%
O=C(CSc1nc2c([nH]c3ccccc32)c(=O)n1-c1ccc(F)cc1)Nc1ccc2c(c1)OCO2	inactive: 5.27%
Cc1ccc(S(=O)(=O)C(CNC(=O)C(=O)NCCc2ccc(F)cc2)c2cccs2)cc1 (stereo not given)	inactive: 4.9%
COc1cc(NC(=O)CSc2ccc(-c3sc(C)nc3C)nn2)cc(OC)c1	inactive: -18.1%
COc1ccc(Cl)cc1NC(=O)c1oc2ccc(S(=O)(=O)N3CCCCC3)cc2c1C	inactive: 3.93%
COc1ccc(N2CCN(C(=O)c3ccc(CS(=O)c4cccc(C)c4)o3)CC2)cc1 (stereo not given)	inactive: -7.19%
Nc1ncc(S(=O)(=O)N2CCN(c3ccccc3)CC2)cn1	inactive: 4.04%
COC(=O)CC1Oc2ccc(Cl)cc2-n2cc(-c3ccc(C)cc3)nc21 (stereo not given)	inactive: 22.1%
Cc1ccc2oc(=O)c(-c3nc(-c4cccs4)no3)cc2c1	inactive: 1.62%
CCN(c1ccc(C)cc1C)S(=O)(=O)c1nnc(NC(=O)c2ccc(F)cc2)s1	inactive: -16.6%
CCN(Cc1ccccc1)C(=O)CN1C(=O)COc2ccc(S(=O)(=O)N3CCOCC3)cc21	inactive: -0.619%
COc1ccc(OC)c(NC(=O)CN(c2ccccc2OC)S(=O)(=O)c2ccc(C)cc2)c1	inactive: 5.58%
O=C(Nc1cccc(C(=O)OCc2cc(=O)n3ccsc3n2)c1)c1ccc(F)cc1	inactive: -20.9%
Cc1csc2nc(COC(=O)c3ccc(NC(=O)c4ccccc4Br)cc3)cc(=O)n12	inactive: -0.0903%
CCOCCCNC(=O)CCC(=O)NNc1nc2ccccc2c2nc(C)nn12	inactive: 10.3%
Cc1nc2nc(SCC(=O)NCCc3ccc(Cl)cc3)nn2c(C)c1Cc1c(F)cccc1Cl	inactive: -7.37%
Cc1ccc(NC(=O)C2CCCN2S(=O)(=O)c2ccc3c(c2)n(C)c(=O)c(=O)n3C)cc1 (stereo not given)	inactive: -0.693%
Cc1nn(CCC(=O)Nc2cccc(C#N)c2)c(C)c1S(=O)(=O)N1CCC(C)CC1	inactive: -0.733%

Structure (SMILES)	activity change, negative = cytotoxicity
COc1ccc(-n2cnc3cc(C(=O)NCCC4=CCCCC4)ccc32)cc1	inactive: -25.3%
COC(=O)c1ccccc1NC(=O)Cc1nc(-c2ccc(OC)cc2)no1	inactive: 2.31%
Cc1ccc(CCNC(=O)c2ccc(CS(=O)(=O)Cc3ccc(Cl)cc3)o2)cc1	inactive: 0.0201%
CN(CC(=O)NCc1ccc(Cl)cc1)S(=O)(=O)c1ccc2c(c1)c(=O)n(C)c(=O)n2C	inactive: -14%
CCOC(=O)c1scc(-c2ccc(C)cc2)c1S(=O)(=O)Nc1cc(C)ccc1C	inactive: 7.4%
COc1cc(Cl)c(C)cc1NC(=O)Cn1cnc2sc(C)c(S(=O)(=O)N3CCCCC3)c2c1=O	inactive: -18.2%
Cc1noc(NS(=O)(=O)c2ccc(NC(=O)COc3ccccc3Br)cc2)c1C	inactive: -2.44%
CCOc1ccccc1NC(=O)Nc1ccccc1OCc1cc(=O)n2ccccc2n1	inactive: 11.7%
COc1cccc(-c2nnc(SCC(=O)N3CCc4ccccc43)o2)c1	inactive: 1.59%
CCS(=O)(=O)c1c(S(=O)(=O)CC)c2cc(C(C)(C)C)ccn2c1C(=O)c1ccc(F)cc1	inactive: 3.27%
CCOc1ccccc1NC(=O)Cn1c(=O)n(-c2ccc(C)c(C)c2)c(=O)c2c(C)c(C(=O)N(C)C)sc21	inactive: -5.76%
COc1ccc(-n2c(=O)c3c4c(sc3n(Cc3c(F)cccc3Cl)c2=O)CN(C(C)=O)CC4)cc1OC	inactive: -0.275%
O=C(Nc1ccc(F)cc1)c1ncn(-c2ccccc2)n1	inactive: -18%
COC(=O)c1sc2cccc(F)c2c1S(=O)(=O)NCc1ccc(F)cc1	inactive: 6.05%
COc1ccc(C2CC(=O)N(Cc3cccc(C)c3)c3c2c(C)nn3-c2nc(C)cc(C)n2)c(OC)c1 (stereo not given)	inactive: -25.9%
CCOC(=O)c1cnc2c(Cl)c(Cl)ccc2c1Nc1ccc(N(C)C)cc1	inactive: 16.8%
CCCCSCCCNC(=O)c1cn(CC)c2ccc(S(=O)(=O)N(C)C3CCCCC3)cc2c1=O	inactive: 2.51%
COc1cccc(-c2nc(SCC(=O)NCc3ccccc3)c3c(=O)n(C)c(=O)n(C)c3n2)c1	inactive: -2.13%
Cc1ccc(CCNC(=O)CCS(=O)(=O)c2ccc3c(c2)oc(=O)n3C)cc1	inactive: 2.41%
O=C(Cn1ccc2cc(S(=O)(=O)N3CCCCCC3)ccc21)NCCc1ccccc1Cl	inactive: -8.55%
COc1cccc(N2CCN(S(=O)(=O)c3ccc(-c4cc(C(F)(F)F)on4)s3)CC2)c1	inactive: -2.56%
Cc1ccc(-c2noc(CN(C(=O)c3ccc(C(C)(C)C)cc3)C(C)C)n2)cc1	inactive: -7.3%
COc1cccc(NC(=O)Cn2c(=O)c3cccn3c3ccc(F)cc32)c1	inactive: 4.14%
